{"source": "the RNAGym collection of RNA variant scans (doi:10.1101/gad.245936.114)", "parents": {"B1": {"name": "tRNA (parent)", "chain": "CUCUCGGUAGCCAAGUUGGUUUAAGGCGCAAGACUUUAAUUUAUCACUACGAAAUCUUGAGAUCGGGCGUUCGACUCGCCCCCGGGAGAUUUUUUCCUCGAGCAA"}}, "note": "Variants at the background level are over-represented here."}
{"variants_of": "B1", "experiment": "nonsense suppression (GFP-seq) (ratio to wild type); higher = more function; SUP4oc tRNA, yeast GFP reporter sort-seq", "how_it_was_run": "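To measure nonsense suppression, tRNA variants from a library carrying ~3% random mutations were integrated into the yeast genome alongside RFP and a GFP ochre reporter under galactose control. Growth took place in raffinose/galactose medium supplemented with 80 mg/L adenine, followed by sorting into GFP/RFP bins and Illumina sequencing of each bin (phred ≥30). For each variant with ≥100 reads and ≥30 cells, the bin median GFP/RFP values were weighted by its estimated cell share per bin and referenced to the unmutated parent tRNA.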"}
{"variant": "CUCUCGGUUGCCAAGUUGGUUUAAGGCGCAAGACUUUAAUUUAUCACUACGAAAUCUUGAGAUCGGGCGUUCGACUCGCGCCCGGGAGAUUUUUUCCUCGAGCAA", "note": "[A9U C80G]", "nonsense suppression": "≤ 0.026"}
{"variant": "CUCUCGGUUGCCAAGUUGGUUUAAGGCGCAAGACUUUAAUUUAUCACUACGAAAUCUUGAGAUCGGGCGUUCGACUCGCCUCCGGGAGAUUUUUUCCUCGAGCAA", "note": "[A9U C81U]", "nonsense suppression": 0.0272}
{"variant": "CUCUCGGUUGCCAAGUUGGUUUAAGGCGCAAGACUUUAAUUUAUCACUACGAAAUCUUGAGAUCGGGCGUUCGACUCGCCCACGUGAGAUUUUUUCCUCGAGCAA", "note": "[A9U C82A G85U]", "nonsense suppression": "≤ 0.026"}
{"variant": "CUCUCGGUUACCAAGUUGGUUUAAGGCGCAAGACUUUAAUUUAUCACUACGAAAUCUUGAGAUCGGGCGUUCGACUCGCCCCCGGGAGAUUUUUUCCUCGAGCAA", "note": "[A9U G10A]", "nonsense suppression": 0.0292}
{"variant": "CUCUCGGUUACCAAGUUGGUUUAAGGCGCAAGACUUUAAUUUAUCACUACGAAAUCUUGAGAUCGGGCUUUCGACUCGCCCCAGGGAGAUUUUUUCCUCGAGCAA", "note": "[A9U G10A G69U C83A]", "nonsense suppression": "≤ 0.026"}
{"variant": "CUCUCGGUUGCCAAUGUGGUUUAAGGCGCAUGAUUUUAAUUUAUCACUACGAAAUCUUGAGAUCGGGCGUUCGAGUCGCCCACGGGAGAUUUUUUCCUCGAGCAA", "note": "[A9U G15U U16G A31U C34U C75G C82A]", "nonsense suppression": "≤ 0.026"}
{"variant": "CUCUCGGUUGCCAAGUUAGUUUAACGCGCAAGACUUUAAUUUAUCACUACGAAAUCUUGAGAUCGGGCGUUCGACUCGCCCCCGGGAGAUUUUUUCCUCGAGCAA", "note": "[A9U G18A G25C]", "nonsense suppression": "≤ 0.026"}
{"variant": "CUCUCGGUUGCCAAGUUAGUUUAAGGCGCAAGACUUUAAUUUAUCACUACGAAAUCUUGAGAUCGGGCGUUCGACUCGCCCCCGCGAGAUUUUUUCCUCGAGCAA", "note": "[A9U G18A G85C]", "nonsense suppression": "≤ 0.026"}
{"variant": "CUCUCGGUUGCCAAGUUGGUUUAAGGCCCAAGACUUUAAUUUAUCACUACGAAAUCUUGAGAUCGGGCGUUCGACUCGCCCCCGAGAGAUUUUUUCCUCGAGCAA", "note": "[A9U G28C G85A]", "nonsense suppression": 0.0603}
{"variant": "CUCUCGGUUGCCAAGUUGGUUUAAGGCUCAAGACUUUAAUUUAUCACUACGAAAUCUUGAGAUCGGGCGUUCGACUCGCCCCCGGGAGAUUUUUUCCUCGAGCAA", "note": "[A9U G28U]", "nonsense suppression": "≤ 0.026"}
{"variant": "CUCUCGGUUGCCAAGUUGGUUUAAGGCUCAAGACUUUAAUUUAUCACUACGAAAUCUUGAGGUCGGGCGUGCGACUCGCCCCCGGGAGAUUUUUUCCUCGAGCAA", "note": "[A9U G28U A62G U71G]", "nonsense suppression": "≤ 0.026"}
{"variant": "CUCUCGGUUGCCAAGUUGGUUUAAGGCGCAAAACUUUAAUUUAUCACUACGAAAUCUUGAGAUCUGGCGUUCGACUCGCCCCCAGGAGAUUUUUUCCUCGAGCAA", "note": "[A9U G32A G65U G84A]", "nonsense suppression": "≤ 0.026"}
{"variant": "CUCUCGGUUGCCAAGUUGGUUUAAGGCGCAACCCUUUAAUUUAUCACUACGAAAUCUUAAGGUCGGGCGUUCGACUCGCCCCCGGGAGAUUUUUUCCUCGAGCAA", "note": "[A9U G32C A33C G59A A62G]", "nonsense suppression": "≤ 0.026"}
{"variant": "CUCUCGGUUGCCAAGUUGGUUUAAGGCGCAAGACUUUAAUUUAUCACUACGAAAUCUUAAGAUCGGGCGUUCGACUCGCCCCCGGGAGAUUUUUUCCUCGAGCAA", "note": "[A9U G59A]", "nonsense suppression": "≤ 0.026"}
{"variant": "CUCUCGGUUGCCAAGUUGGUUUAAGGCGCAAGACUUUAAUUUAUCACUACGAAAUCUUGAAAUCGGGCGUUAGACUCGCCCCCGGGAGAUUUUUUCCUCGAGCAA", "note": "[A9U G61A C72A]", "nonsense suppression": "≤ 0.026"}
{"variant": "CUCUCGGUUGCCAAGUUGGUUUAAGGCGCAAGACUUUAAUUUAUCACUACGAAAUCUUGACAUCGGGCGGUCGACUCGCCCCCGGGAGAUUUUUUCCUCGAGCAA", "note": "[A9U G61C U70G]", "nonsense suppression": "≤ 0.026"}
{"variant": "CUCUCGGUUGCCAAGUUGGUUUAAGGCGCAAGACUUUAAUUUAUCACUACGAAAUCUUGAUAUCGGGCUUUCGACUCGCCCCCGGGAGAUUUUUUCCUCGAGCAA", "note": "[A9U G61U G69U]", "nonsense suppression": "≤ 0.026"}
{"variant": "CUCUCGGUUGCCAAGUUGGUUUAAGGCGCAAGACUUUAAUUUAUCACUACGAAAUCUUGAGAUCGAGCGUUCGACUCGCCCCCGGGAGAUUUUUUCCUCGAGCAA", "note": "[A9U G66A]", "nonsense suppression": 0.0305}
{"variant": "CUCUCGGUUGCCAAGUUGGUUUAAGGCGCAAGACUUUAAUUUAUCACUACGAAAUCUUGAGAUCGAGGGUUCGACUCGCCCCCGGGAGAUUUUUUCCUCGAGCAA", "note": "[A9U G66A C68G]", "nonsense suppression": "≤ 0.026"}
{"variant": "CUCUCGGUUGCCAAGUUGGUUUAAGGCGCAAGACUUUAAUUUAUCACUACGAAAUCUUGAGAUCGGACGUUCGACUCGCCCCCGGGAGAUUUUUUCCUCGAGCAA", "note": "[A9U G67A]", "nonsense suppression": "≤ 0.026"}
{"variant": "CUCUCGGUUGCCAAGUUGGUUUAAGGCGCAAGACUUUAAUUUAUCACUACGAAAUCUUGAGAUCGGUCGUUCGACUCGCCCCCGGGAGAUUUUUUCCUCGAGCAA", "note": "[A9U G67U]", "nonsense suppression": "≤ 0.026"}
{"variant": "CUCUCGGUUGCCAAGUUGGUUUAAGGCGCAAGACUUUAAUUUAUCACUACGAAAUCUUGAGAUCGGGCAUUCGACUUGCCCCCGGGAGAUUUUUUCCUCGAGCAA", "note": "[A9U G69A C77U]", "nonsense suppression": "≤ 0.026"}
{"variant": "CUCUCGGUUGCCAAGUUGGUUUAAGGCGCAAGACUUUAAUUUAUCACUACGAAAUCUUGAGAUCGGGCGUUCAACUCGCCCCCGGGAAAUUUUUUCCUCGAGCAA", "note": "[A9U G73A G88A]", "nonsense suppression": "≤ 0.026"}
{"variant": "CUCUCGGUUGCCAAGUUGGUUUAAGGCGCAAGACUUUAAUUUAUCACUACGAAAUCUUGAGAUCGGGCGUUCUACUCGCCCCCGGGAGAUUUUUUCCUCGAGCAA", "note": "[A9U G73U]", "nonsense suppression": "≤ 0.026"}
{"variant": "CUCUCGGUUGCCAAGUUGGUUUAAGGCGCAAGACUUUAAUUUAUCACUACGAAAUCUUGAGAUCGGGCGUUCGACUCGCCCCCUGGAGAUUUUUUCCUCGAGCAA", "note": "[A9U G84U]", "nonsense suppression": 0.0747}
{"variant": "CUCUCGGUUGCCAAGUUGGUUUAAGGCGCAAGACUUUAAUUUAUCACUACGAAAUCUUGAGAUCGGGCGUUCGACUCGCCCCCGAGAGCUUUUUUCCUCGAGCAA", "note": "[A9U G85A A89C]", "nonsense suppression": "≤ 0.026"}
{"variant": "CUCUCGGUUGCCAAGUUGGUUUAAGGCGCAAGACUUUAAUUUAUCACUACGAAAUCUUGAGAUCGGGCGUUCGACUCGCCCCCGCGAGAUUUUUUCCUCGAGCAA", "note": "[A9U G85C]", "nonsense suppression": 0.0283}
